# Measurements reported in the supplement of paper PMC11417369.
# Some of the results follow.
# System: PfHDP1 homeodomain (GST-tagged)
# Assay: gcPBM binding intensity (ln(normalized median fluorescence intensity)); higher = stronger DNA binding
# Outline: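 An Agilent 4 × 180k array carrying primer-extended double-stranded 36-bp intergenic genomic probes and negative controls received GST-tagged P. falciparum DNA-binding domains expressed in E. coli, about 25 μg on average, for 1 h. The binding buffer contained 1× PBS, 1% milk, 0.2 mg/ml BSA, 0.5% salmon testes DNA and 0.03% Triton X-100. Binding intensity is the top Masliner-normalised natural-log median intensity across replicate spots of either probe orientation, read after Alexa488 anti-GST antibody staining and a 488 nm scan.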
row,Sequence,gcPBM binding intensity (ln)
1,ATCATTTGCATACGCACACACACATAAAAAGAAAAA [CACACA_site355],8.44
2,TCTATCAAATTTGAAGGTACACATTTGAGATAATTA [XGTACX_site3797],6.41
3,TATATTTATTTATATACACACATAATAAAAAATATA [CACACA_site6527],6.49
4,TACTTATTGTGATACTTATATTATTTTATGATTAAA [XGTACX_negctrl_site353],6.29
5,TATTAATGATAAAAAAGTACATTATTATATGATATT [XGTACX_site4235],6.32
6,AGCTTGTAACAGTTTACACACTAATATTTATAAATT [CACACA_site6024],6.88
7,ATATTTTTTTTTTTATGTACTTATTTATAATTATTT [XGTACX_site5279],6.67
8,ATTATACAAATTGAGGTGCATGAAACAAAATATGAA,8.66
9,CACCAAAATATATGTACATATGATAAATGTGAATAT [GTGCAC_negctrl_site83],7.06
10,CTTTTCTATTTTTTCGTGCACTATAAATATTTTAAT,10.1
11,TTTTACAATATTTTGTGTACTTATATTATGAGCTTA [XGTACX_site3287],6.46
12,TAACTTTTTTTTTTTTTTTTTTAACTTTTATGTAAT [GTGCAC_negctrl_site156],6
13,AAAATTATCGTTATATGTACGCATCTTAATACGTAT [XGTACX_site4063],6.06
14,ATAATCCACAAGCACACACACACACCCATATATATA [CACACA_site1268],7.2
15,TATATATATATATATATATATATATATGTATATATG [XGTACX_negctrl_site242],9.49
16,AACTTTAAACCCTGAACACACACAAATACACCCAAA [CACACA_site7971],7.16
17,TTTTTTTTTTTTTTTGCACACATTTTAATTATTTTT [CACACA_site341],9.27
18,CTCAAAAAATATGAACGTACAAAATAAGTAATGACA [XGTACX_site590],7
19,AACTCATAGGAGTGTGCACACAAAAAATTAAAAAAA [CACACA_site8996],11
20,ATACATATTAATATGTGTACACATTTTTATTTTTTT [XGTACX_site930],6.75
21,AAAAAAAAAAAAAAAGGTACACAAAACGGTATTATT [XGTACX_site7064],6.38
22,TTTTTTTTTTTTGTCACACATATGGAATATATCTAT [CACACA_site5899],6.42
23,TTTGTCAACCAAAATTGTACAAATGTATTCCCAATA [XGTACX_site1350],6.18

row,Sequence,gcPBM binding intensity (ln)
1,TTATTTATCAAAAAATGTACAAAAATATATAAACAA [XGTACX_site940],6.71
2,TTATATTTATTTAATGAACACACGATATATTATTTT [CACACA_site1601],6.34
3,TTTTAAAAAAGAAAAAAAAAGGATCAGAGAAATATT [GTGCAC_negctrl_site79],6.39
4,TTGTAGATATTTATATGTACGAATTTATAAATATAG [XGTACX_site3611],6.25
5,AAAAAAATTAATAATGTGCACTTTTTAGTATTTTTA [GTGCAC_site9744],9.48
6,AAATGTTAATTAAATGCATGTACAAAAGGAGCGAAT [TGCATGCA_site942],7.93
7,GCATAATATACTCTTACACACCATTTCTATATACAT [CACACA_site6799],7.23
8,TTTGTTAATTATAAATGTACATATTATATATATATA [XGTACX_site8870],8.42
9,TATATATATATGTATACACACATATGTATGTTATGT [CACACA_site4053],8.97
10,TTAAAACCAAAACACAGTACATATATATATATATAT [XGTACX_site5668],9.38
11,AAAATATATTATATATGTACATATTACGTTTTAATT [XGTACX_site2518],6.8
12,CAATTTTAAGTAATCAATTTTTTTAAAAAACACAAA [CACACA_negctrl_site961],6.35
13,AAATTAATTAAATATACACACATATATAAATATATA [CACACA_site391],6.29
14,ATATATATATAAAGTTGTACATTTTTTATTTTTTCA [XGTACX_site7847],8.52
15,TTGTTTTTAGTTTATACACACCATATTAATATAATG [CACACA_site7452],7.35
16,TTATATTATGGACACACACACAAAAAAAAAAAAAAA [CACACA_site7744],6.31
17,ATTTGGCATGGACACACACACACACCGACAGACATA [CACACA_site4491],6.55
18,TTGATGATATAAAAAAGTACTTATATTATATTATAT [XGTACX_site6492],6.48
19,TTTTGTAAAAAAAAAAAAAAAGGAAAATTAAAATAA [CACACA_negctrl_site803],5.9
20,TTTCCTATTTAATATAGTACATAAGAAATAATTTTA [XGTACX_site5952],6.07
21,TTGACACGTATATGCACACACCCGTAAGTGTCCATT [CACACA_site2764],10.2
22,ATATTTTATTATTGTTGTACTTTTTTTTGATTGTTT [XGTACX_site4090],6.52
23,TTTAATATTTTTCAATGTAGAAAGTTTGTCTGTTAT [CACACA_negctrl_site973],6.11

row,Sequence,gcPBM binding intensity (ln)
1,AGTTATAAACATATGTGTACTTATAAAAACATATAG [XGTACX_site3268],6.53
2,TCACACATATATTCATGTACATATTAATATTTCCAT [XGTACX_site5387],6.85
3,TTTTTTATGAACACGTCACACATCATTAAAATGTTT [CACACA_site5934],6.37
4,AATATTATAATATAAACACACAAAATTCAATTATAT [CACACA_site3789],6.53
5,AACGTTCATATTTCCACACACAAAAAATAAATATAA [CACACA_site3344],6.91
6,TTAATATTAATATATTGTACATATATGCACATATTT [XGTACX_site6569],9.73
7,AAAAATAAAGGGCGAAAAAAAAAAAAAAAAAAAAAA [GTGCAC_negctrl_site671],6.28
8,CTTGTATTTAAACACACACACACTTTCTTTTTTTAA [CACACA_site5133],6.76
9,ATATTTCATCTAGCTACACACATATAACAAATTACT [CACACA_site7843],7.11
10,TACATAAAAATATCACGTACATATAATCATATACTA [XGTACX_site3505],6.32
11,ACCTTTGATATATACACACACATAAAAAAAATATAT [CACACA_site6952],7.99
12,TTCTTTTTCCAATTTGCACACCACAAAATTATATAT [CACACA_site2909],10.6
13,ATTAATAATATTCCTTGTACATGATTTTTCTAAATA [XGTACX_site7099],6.93
14,TATAAATATAAATACACACACACATCAATACAGATA [CACACA_site5850],6.87
15,AAAAAAAAAAAAAAAACACACATACACCCCCACCCA [CACACA_site9117],7.9
16,TATAATAATGCCTTTACATGCAATAATAAAGAAATA [TGCATGCA_site631],6.31
17,TCTTTTGAACAAATTTGTACGTATATAAAAATATTT [XGTACX_site6547],6.79
18,AATGAATTAATAGCTACACACGGTAACATAATAACT [CACACA_site851],6.37
19,TGCACAGACGGACACACACACAACTAAAAAATAATG [CACACA_site5424],6.84
20,TGTGTTAATAGAAAAAGTACATATACATATATATAT [XGTACX_site4951],8.48
21,TTAAATATAAAAAGTAGTACATTTATATTTACCATA [XGTACX_site2962],6.19
22,TCAAATTATATGAGTGGTACACATGTAATATTTTTA [XGTACX_site6518],6.01
23,AAAAAACGACCTTACGCACACATTATTCTAGTCTAT [CACACA_site2349],7.11

row,Sequence,gcPBM binding intensity (ln)
1,TTACATTTTTTATGTTTTTTTATATTGCAAAAAAAT [CACACA_negctrl_site1050],7.86
2,ATATTTTGTATAATCACACACACTATTATTAAATAG [CACACA_site2612],6.49
3,ATATATATATATATATGTACTTATTAAGATTAAAAA [XGTACX_site61],9.46
4,AAAAAAATATATATTACACACATATATACATATATA [CACACA_site3125],6.68
5,ATATATATATATATTTGTACATATATATAATTTTTC [XGTACX_site7460],9.14
6,AAAATAAAAAAAAAAGGTACACAAAAAGATGGACTG [XGTACX_site2650],6.49
7,TATAATTGTCTTCACACACACATATATATATATATA [CACACA_site2743],9.45
8,TTTTTTTTTTAAAAAACACACACCTAAACAAGATAT [CACACA_site875],6.95
9,CGCATACACCAACACACACACACATATATATATATA [CACACA_site635],9.38
10,TATAAATACTTATATGTACACACATATAGATATATA [CACACA_site8819],6.39
11,ATCTAATATATATTCTGTACGTAATTAAAACCACAA [XGTACX_site3152],6.87
12,AGAAGTCTGTAATGATGTACTGGAAAAATATAAATA [XGTACX_site8148],6.48
13,TAGATCTTATTTACAAGTACATATATACGATTCATT [XGTACX_site7578],6.31
14,ATGTTGTCAAAAAAATGTACTTACATAATATTTTCC [XGTACX_site1732],6.27
15,TTTATTTTTTGTGGCACACAGAAGAAACAAGAACAA [CACACA_site1696],7.16
16,AATGAATAATTATTTTGTACATAATATTATATTTAT [XGTACX_site5350],6.51
17,TAAATGTGAACAATAGAAGTAATAAGAAGAATAAAA [CACACA_negctrl_site1080],6.63
18,AATAGTAATTTGAATACACACAATAATATATTTATA [CACACA_site7055],6.44
19,TAACACCAAACTAAATGTACACACATACATAAATAT [XGTACX_site2201],6.67
20,TCTTATATGATATTTATTTATTTATTTATTTATTCA [GTGCAC_negctrl_site686],6.12
